Laboratory results published in ChEMBL document CHEMBL4888484, “Replenishing the malaria drug discovery pipeline: Screening and hit evaluation of the MMV Hit Generation Library 1 (HGL1) against asexual blood stage Plasmodium falciparum ,using a nano luciferase reporter read-out” (2022).
Hit rate of the full screen: of about 150,000 compounds, about 540 (0.36%) showed an effect of 50% or more. The list shows a part of the results.

test system: Plasmodium falciparum; assay: Primary screen in NF54 nanoGlo assay, in single point, at 2uM, 72h; a lower Z score goes with more inhibition; type: functional, Erythrocyte; settings: timepoint 72 hour

Compared with `COc1ccc(C(=O)N2CCCC[C@H]2C(=O)N2CCOCC2)cc1`, `COCC(=O)N1CC[C@@H](c2nc(C)no2)N(C(=O)C2CCCC2)CC1` is higher in “% Inhibition” value: -5% for the first, 2% for the second.

Compared with `CC1CCN(c2nc3c(c(Oc4cccc(F)c4)n2)CN(Cc2cccn2C)CC3)CC1`, `N#Cc1cccc(C2(c3nc(Cc4cccc(F)c4)no3)CCC2)c1` is higher in “% Inhibition” value: -11% for the first, 3% for the second.

Compared with `CN1CCN(CC2CCCN(C(=O)C3CC3C3CCCCC3)C2)CC1` (stereo unspecified), `Cc1ccncc1C(=O)N1CCC[C@H](c2nnc3n2CCN(C2CCCC2)C3)C1` is lower in “% Inhibition” value: -17% for the first, -20% for the second.

Compared with `CCN(CC)c1cc(CCC(=O)NCc2ccc(Cl)cc2)ccn1`, `Cc1ccc(CNC(=O)c2cnc3c(c(C)nn3-c3ccccc3)c2O)cc1` is lower in “% Inhibition” value: -13% for the first, -17% for the second.

First: COc1ccc(C(=O)c2c(-c3ccc(Cl)cc3)c3c4n(c(COc5ccccc5F)nn24)CCCC3)cc1
Second: COC(=O)c1ccc([C@@H](CC(=O)NCc2ccccc2)c2c[nH]c3cccc(OC)c23)cc1
The “% Inhibition” value of the first is lower: -4% for the first, 2% for the second.

Going from `N[C@@H](Cc1c[nH]c2ccccc12)C(=O)NC1CCCC1` to `O=C(NC1CCCCCCC1)c1cc2n(n1)CCCN(Cc1ccc(F)cc1)C2=O`, the “% Inhibition” value falls from 7% to -4%.

Going from `O=C(O)[C@H]1CCCN1c1nc(C2CC2)nc2[nH]ccc12` to `CCc1cccc2c(C3CCN(C(=O)CNS(=O)(=O)C4CC4)CC3)c[nH]c12`, the “% Inhibition” value rises from -2% to -1%.

First: CCc1cc(C(=O)N2CCC3(CCC(=O)N(CCOC)C3)CC2)ccn1
Second: O=C1CC2(CCN(C(=O)c3cc(C4CC4)no3)CC2)CN1Cc1ccccc1
The “% Inhibition” value of the first is higher: 0% for the first, -2% for the second.

Compared with `Cc1ccc(S(=O)(=O)N2C[C@H](c3cn(C)cn3)[C@@H](N)C2)cc1C`, `Cc1ccc(-n2cnnc2)c(C(=O)N2CC3CCCC(C3)C2)c1` is lower in “% Inhibition” value: 0% for the first, -4% for the second.

First: O=C(Nc1ccc(F)cc1F)[C@H]1CCCN(S(=O)(=O)Cc2ccccc2Cl)C1
Second: O=C(CCN1CCCO1)NC(c1ccc(F)cc1F)[C@H]1C[C@@H](O)C1 (stereo partly specified)
The “% Inhibition” value of the first is higher: 4% for the first, -5% for the second.

Going from `COc1ccc(CN2CCN(C3=NS(=O)(=O)C(c4ccc(C(C)C)cc4)=C3C)CC2)c(OC)c1OC` to `COc1ccccc1N1CCN(C(=O)c2cn3c4c(cccc4c2=O)CC3)CC1`, the “% Inhibition” value rises from -11% to -3%.

Going from `COc1cccn([C@@H](C)C(=O)NC(C)C)c1=O` to `CCS(=O)(=O)CC(C)NC(C)c1cccc(F)c1` (stereo unspecified), the “% Inhibition” value rises from -21% to 9%.

Compared with `CC(C)[C@H](CNc1nccnc1C#N)N1CCCC1`, `N#Cc1c(C2CC2)cc(-c2cc(CN3CCCC3)cs2)nc1N` is lower in “% Inhibition” value: 1% for the first, -13% for the second.

First: O=C(c1cnccn1)N1CC[C@H]2COC(=O)N2c2ccccc2C1
Second: CCn1nccc1C(=O)N1CCCCC[C@H]1c1nnc(-c2ccccc2)o1
The “% Inhibition” value of the first is higher: 15% for the first, -14% for the second.

Compared with `CCc1cccc(C)c1/N=C1/N=C(N2CCOCC2)N(c2ccc(C)cc2)C12CCCCC2`, `Cc1ccc(-c2cc3c4nn(CC(=O)Nc5cccc(C)c5)c(=O)n4ccn3n2)cc1` is higher in “% Inhibition” value: -34% for the first, 3% for the second.

Compared with `CC(NC(C)c1ccncc1F)c1ccc2c(c1)COC(C)(C)O2` (stereo unspecified), `CC(C)CCN(Cc1ccc(F)cc1F)C[C@H](O)COCc1ccco1` is lower in “% Inhibition” value: 2% for the first, -9% for the second.

First: CO[C@H]1CN(C(=O)Cc2cc(C)cc(C)c2)C[C@@H]1O
Second: CO[C@@]12CC[C@H](O)C[C@@H]1N(C(=O)c1[nH]c3ccccc3c1C)CC2
The “% Inhibition” value of the first is higher: -15% for the first, -22% for the second.

First: C=CCNC(=O)C1C(=O)N[C@@]2(C)C[C@H]1c1ccccc1O2 (stereo partly specified)
Second: COc1cccnc1NC(=O)N1CC2(CC=CC2)[C@H]1c1ccccc1
The “% Inhibition” value of the first is lower: -2% for the first, 5% for the second.

Compared with `CC(=O)c1ccc(N2CCC3(CCOCC3)[C@@H]2C)nc1`, `O[C@@]1(CN2CCCCC2)CCN(Cc2cccc(OC(F)F)c2)C1` is lower in “% Inhibition” value: -3% for the first, -6% for the second.

Compared with `CN(Cc1ncc[nH]1)c1nc(-c2ccncc2)nc2c1CCNC2`, `CC(C)Cc1nc(-c2cc(F)cc3c2O[C@@H](CN)C3)n[nH]1` is higher in “% Inhibition” value: -10% for the first, -4% for the second.

Compared with `CCC1CCCC(CN(C)C2CC[S+]([O-])CC2)C1` (stereo unspecified), `C[C@H](N(C)C(=O)NCC1CCS(=O)(=O)CC1)C1(C)CC1` is higher in “% Inhibition” value: 3% for the first, 7% for the second.

Compared with `CC[C@H](OC)C(=O)N1CC2CC1(C(N)=O)C2`, `C[C@H]1C[C@]1(C)S(=O)(=O)NCCc1cn2c(n1)CCCC2` is higher in “% Inhibition” value: -6% for the first, -1% for the second.

Compared with `N#Cc1ccc(NCC2(CCO)CC2)c(Br)c1`, `CCn1nccc1CNc1cc(Br)c(OC)cc1OC` is higher in “% Inhibition” value: -3% for the first, 3% for the second.

Compared with `O=C(CC(F)(F)F)NCc1cccs1`, `Cc1cc(NC(=O)CN2CCO[C@H](c3ccsc3)C2)no1` is lower in “% Inhibition” value: 8% for the first, -4% for the second.

Going from `C[C@@H]1CN(C[C@@H]2CN(Cc3ccccc3C(F)(F)F)C[C@@H]2CO)C[C@H](C)O1` to `C[C@@H]1CN(C[C@@H]2CN(c3ncccc3Cl)C[C@@H]2CO)C[C@H](C)O1`, the “% Inhibition” value falls from -5% to -12%.

Going from `N#Cc1cnc(NCc2ccc(NC(=O)c3ccc(F)cc3)cc2)cn1` to `Cc1nc2n(c1Br)CCN(CCC1(O)CCC1)[C@H]2C`, the “% Inhibition” value rises from -17% to 1%.

`C=C(C)CC(C)C(=O)NC(CO)C(O)C1CCCCC1` (stereo unspecified) was tested, and the “% Inhibition” value was 4%.

Compared with `COc1ccc(C(=O)N2CCCC[C@H]2C(=O)N2CCOCC2)cc1`, `COCC(=O)N1CC[C@@H](c2nc(C)no2)N(C(=O)C2CCCC2)CC1` is lower in Z score: 0.94 for the first, -0.34 for the second.

First: CC1CCN(c2nc3c(c(Oc4cccc(F)c4)n2)CN(Cc2cccn2C)CC3)CC1
Second: N#Cc1cccc(C2(c3nc(Cc4cccc(F)c4)no3)CCC2)c1
The Z score of the first is higher: 1.04 for the first, -0.33 for the second.

Going from `CN1CCN(CC2CCCN(C(=O)C3CC3C3CCCCC3)C2)CC1` (stereo unspecified) to `Cc1ccncc1C(=O)N1CCC[C@H](c2nnc3n2CCN(C2CCCC2)C3)C1`, the Z score rises from 1.56 to 3.88.

First: CCN(CC)c1cc(CCC(=O)NCc2ccc(Cl)cc2)ccn1
Second: Cc1ccc(CNC(=O)c2cnc3c(c(C)nn3-c3ccccc3)c2O)cc1
The Z score of the first is lower: 1.89 for the first, 2.24 for the second.

Going from `COc1ccc(C(=O)c2c(-c3ccc(Cl)cc3)c3c4n(c(COc5ccccc5F)nn24)CCCC3)cc1` to `COC(=O)c1ccc([C@@H](CC(=O)NCc2ccccc2)c2c[nH]c3cccc(OC)c23)cc1`, the Z score falls from 0.79 to -0.22.

Going from `N[C@@H](Cc1c[nH]c2ccccc12)C(=O)NC1CCCC1` to `O=C(NC1CCCCCCC1)c1cc2n(n1)CCCN(Cc1ccc(F)cc1)C2=O`, the Z score rises from -1.14 to 0.51.

Compared with `O=C(O)[C@H]1CCCN1c1nc(C2CC2)nc2[nH]ccc12`, `CCc1cccc2c(C3CCN(C(=O)CNS(=O)(=O)C4CC4)CC3)c[nH]c12` is lower in Z score: 0.25 for the first, 0.15 for the second.

Going from `CCc1cc(C(=O)N2CCC3(CCC(=O)N(CCOC)C3)CC2)ccn1` to `O=C1CC2(CCN(C(=O)c3cc(C4CC4)no3)CC2)CN1Cc1ccccc1`, the Z score rises from 0.08 to 0.19.

First: Cc1ccc(S(=O)(=O)N2C[C@H](c3cn(C)cn3)[C@@H](N)C2)cc1C
Second: Cc1ccc(-n2cnnc2)c(C(=O)N2CC3CCCC(C3)C2)c1
The Z score of the first is lower: 0.03 for the first, 0.73 for the second.

Compared with `O=C(Nc1ccc(F)cc1F)[C@H]1CCCN(S(=O)(=O)Cc2ccccc2Cl)C1`, `O=C(CCN1CCCO1)NC(c1ccc(F)cc1F)[C@H]1C[C@@H](O)C1` (stereo partly specified) is higher in Z score: -0.48 for the first, 0.75 for the second.

Going from `COc1ccc(CN2CCN(C3=NS(=O)(=O)C(c4ccc(C(C)C)cc4)=C3C)CC2)c(OC)c1OC` to `COc1ccccc1N1CCN(C(=O)c2cn3c4c(cccc4c2=O)CC3)CC1`, the Z score falls from 1.61 to 0.32.

Going from `COc1cccn([C@@H](C)C(=O)NC(C)C)c1=O` to `CCS(=O)(=O)CC(C)NC(C)c1cccc(F)c1` (stereo unspecified), the Z score falls from 1.94 to -1.2.

Going from `CC(C)[C@H](CNc1nccnc1C#N)N1CCCC1` to `N#Cc1c(C2CC2)cc(-c2cc(CN3CCCC3)cs2)nc1N`, the Z score rises from -0.21 to 2.07.

Going from `O=C(c1cnccn1)N1CC[C@H]2COC(=O)N2c2ccccc2C1` to `CCn1nccc1C(=O)N1CCCCC[C@H]1c1nnc(-c2ccccc2)o1`, the Z score rises from -1.69 to 2.65.

Going from `CCc1cccc(C)c1/N=C1/N=C(N2CCOCC2)N(c2ccc(C)cc2)C12CCCCC2` to `Cc1ccc(-c2cc3c4nn(CC(=O)Nc5cccc(C)c5)c(=O)n4ccn3n2)cc1`, the Z score falls from 3.98 to -0.39.

Compared with `CC(NC(C)c1ccncc1F)c1ccc2c(c1)COC(C)(C)O2` (stereo unspecified), `CC(C)CCN(Cc1ccc(F)cc1F)C[C@H](O)COCc1ccco1` is higher in Z score: -0.21 for the first, 1.14 for the second.

First: CO[C@H]1CN(C(=O)Cc2cc(C)cc(C)c2)C[C@@H]1O
Second: CO[C@@]12CC[C@H](O)C[C@@H]1N(C(=O)c1[nH]c3ccccc3c1C)CC2
The Z score of the first is higher: 2.78 for the first, 1.97 for the second.

First: C=CCNC(=O)C1C(=O)N[C@@]2(C)C[C@H]1c1ccccc1O2 (stereo partly specified)
Second: COc1cccnc1NC(=O)N1CC2(CC=CC2)[C@H]1c1ccccc1
The Z score of the first is higher: 0.22 for the first, -0.71 for the second.

First: CC(=O)c1ccc(N2CCC3(CCOCC3)[C@@H]2C)nc1
Second: O[C@@]1(CN2CCCCC2)CCN(Cc2cccc(OC(F)F)c2)C1
The Z score of the first is lower: 0.29 for the first, 1.06 for the second.

Going from `CN(Cc1ncc[nH]1)c1nc(-c2ccncc2)nc2c1CCNC2` to `CC(C)Cc1nc(-c2cc(F)cc3c2O[C@@H](CN)C3)n[nH]1`, the Z score falls from 1.38 to 0.78.

First: CCC1CCCC(CN(C)C2CC[S+]([O-])CC2)C1 (stereo unspecified)
Second: C[C@H](N(C)C(=O)NCC1CCS(=O)(=O)CC1)C1(C)CC1
The Z score of the first is higher: -0.3 for the first, -0.91 for the second.

Compared with `CC[C@H](OC)C(=O)N1CC2CC1(C(N)=O)C2`, `C[C@H]1C[C@]1(C)S(=O)(=O)NCCc1cn2c(n1)CCCC2` is lower in Z score: 1.16 for the first, 0.2 for the second.

First: N#Cc1ccc(NCC2(CCO)CC2)c(Br)c1
Second: CCn1nccc1CNc1cc(Br)c(OC)cc1OC
The Z score of the first is higher: 0.34 for the first, -0.37 for the second.

Compared with `O=C(CC(F)(F)F)NCc1cccs1`, `Cc1cc(NC(=O)CN2CCO[C@H](c3ccsc3)C2)no1` is higher in Z score: -1.16 for the first, 0.53 for the second.

Going from `C[C@@H]1CN(C[C@@H]2CN(Cc3ccccc3C(F)(F)F)C[C@@H]2CO)C[C@H](C)O1` to `C[C@@H]1CN(C[C@@H]2CN(c3ncccc3Cl)C[C@@H]2CO)C[C@H](C)O1`, the Z score rises from 0.65 to 1.63.

First: N#Cc1cnc(NCc2ccc(NC(=O)c3ccc(F)cc3)cc2)cn1
Second: Cc1nc2n(c1Br)CCN(CCC1(O)CCC1)[C@H]2C
The Z score of the first is higher: 2.89 for the first, -0.09 for the second.

`C=C(C)CC(C)C(=O)NC(CO)C(O)C1CCCCC1` (stereo unspecified) gave a Z score of -0.6.
